In PubChem BioAssay AID1963853 (Molecular Pharmacology Branch, DTP, NCI, 2024):
Not every entry of the source has a single result; some have several. The other results are left out here. There may be further records. The records of an entry are repeated measurements across runs, samples, wells, individuals or studies. Signs of the kind (2×) give the number of equal values in this list. A date in brackets names the month of the test.

System: 266295-075-R-J1-PDC spheroid viability
Experiment: Anticancer human tumor 266295-075-R-J1-PDC patient-derived head and neck squamous carcinoma cell line growth inhibition [POLQ]
Conditions: stronger effect = lower value, spheroids with HUVEC and MSC
Experimental: Multicellular complex tumor spheroid response to Polymerase (POL) inhibitors (novobiocin, ART-558, RP6685) in combination with a variety of drugs and investigational agents in selected tumor cell lines
The POL inhibitors (novobiocin, ART-558, and RP6685) were evaluated both individually and in combination with standard of care and investigational anticancer small molecules within a complex spheroid model of solid tumors. . Complex spheroids include a stromal component modeled by human endothelial cells (HUVEC) and fibroblasts modeled by human mesenchymal stem cells (MSCs). The concentration ranges selected for each drug and investigational agent were based upon clinically achievable concentrations if the clinical Cmax of the agent was known.
Compounds. The drugs and investigational agents: novobiocin (NSC847541), ART-558 (NSC835418), RP-6685 (NSC848927), peposertib (NSC802822), ceralasertib (NSC780249), elimusertib (NSC800525), camonsertib (NSC841442), AZD-1390 (NSC803789), olaparib (NSC753686), talazoparib (NSC767125), rucaparib (NSC756644), sotorasib (NSC818433), MRTX-1133 (NSC836407), SN-38 (NSC673596), topotecan (NSC609699), epotoside (NSC141540), doxorubicin (NSC123127), gemcitabine (NSC613327), 5-fluorouracil (NSC19893), paclitaxel (NSC125973), vemurafenib (NSC761431), MSA-2 (NSC828583), SN-011 (NSC837082), adavosertib (NSC754352), prexasertib (NSC758257), carboplatin (NSC241240) and oxaliplatin (NSC266046), were obtained from the National Cancer Institute (NCI) Developmental Therapeutics Program Chemical Repository (21). The FDA-approved anticancer drug set is available from the Developmental Therapeutics Program at https://dtp.cancer.gov/organization/dscb/obtaining/. […] The stock solutions were prepared in dimethyl sulfoxide (DMSO, Sigma-Aldrich, St. Louis, MO, cat. D2650), except for the platinum compounds which were prepared in saline (Quality Biological, Gaithersburg, MD, cat. 114-055-101), at 800-fold the tested concentration and stored at -70 degrees C prior to their use. All drugs and investigational agents were tested over a range starting from a high concentration at or near the clinical Cmax and decreasing in half-log increments. If the clinical Cmax for an agent had not been determined, the highest concentration tested was 10 microM, except for SN-38, which was tested at a high concentration of 1 microM.
Cell Culture. All cells were maintained in an incubator at 37 degrees C and 5% CO2 with 95% humidity. The PDC lines were cultured according to standard operating procedures established by the NCI PDMR (https://pdmr.cancer.gov). Table 3 of the manuscript, lists the cell lines along with the number of the three cell types plated to form the mct-spheroids and media for tumor cell growth. After thawing, all PDC lines, except 997537-175-T-J1-PDC and 415267-285-R-J2-PDC, were cultured in Matrigel-coated flasks prepared with a working solution of 1X Ham's F-12 nutrient mix, without supplementation (Thermo Fisher Scientific, cat. 11765054), 100 U/mL penicillin-streptomycin (Thermo Fisher Scientific, cat. 15140122), and 2.5% Matrigel (Corning Inc., Corning, NY, cat. 354248) for the first three passages. The two PDC lines 997537-175-T-J1-PDC and 415267-285-R-J2-PDC were cultured on uncoated flasks. The 857933-349-R-J2-PDC line was cultured in 6C/Colon 1B media containing advanced DMEM/F-12 (Thermo Fisher Scientific, cat. 12634028), 10 mM HEPES (Thermo Fisher Scientific, cat. 15630080), 1X GlutaMAX supplement (Thermo Fisher Scientific, cat. 35050061), 0.1 mg/mL primocin (InvivoGen, San Diego, CA, cat. ant-pm-2), 10% defined fetal bovine serum, heat inactivated (HyClone Laboratories Inc., Logan, UT, cat. SH30070.03HI), 50% L-WRN conditioned media (ATCC, cat. CRL-3276), 1.25 mM N-Acetyl-L-cysteine (Sigma-Aldrich, cat. A9165), 10 mM nicotinamide (Sigma-Aldrich, cat. N0636), 1X B-27 supplement (Thermo Fisher Scientific, cat. 17504044), 1X N-2 supplement (Thermo Fisher Scientific, cat. […]
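Also: spheroids exposed to compounds for seven days before readout.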

SMILES | viability, T/C (compound alone 0.0316 µM) | viability, T/C (compound alone 0.1 µM) | viability, T/C (compound alone 1 µM) | viability, T/C (compound alone 0.316 µM) | viability, T/C (compound alone 3.16 µM) | viability, T/C (compound alone 10 µM)
Nc1ccc(C#CCN(C(=O)Cc2ncc(C(F)(F)F)cc2C(F)(F)F)c2ccc(F)cc2)nn1 | 59.1, 76.1, 88.7, 68.8, 58.2, 78, 80.5, 86.8, 71.8, 71.4, 75.4, 81.3, 103% | 99, 131, 102, 77.4, 91.4, 80, 111, 96.6, 93.5, 97.2, 106, 103, 107% | 80.8, 93.2, 102, 95.5, 93, 89.9, 92.2, 124, 97.1, 106 (2×), 90.4, 97.4% |  |  | 
Cc1cccc(N(C)C(=O)C2C(O)CCN2c2nc(C)cc(C(F)(F)F)c2C#N)c1 (stereo not drawn) | 91.7, 97.2, 100, 87.6, 103, 99.7, 75.1, 93% [2023-10] and 65.7, 79.5, 60.8, 70.4, 79.8% [2023-11] | 96, 91, 94.9, 101, 110, 91.2, 72.7, 85.8% [2023-10] and 87.6, 105, 91.2, 114% [2023-11] | 93, 106 (2×), 91.3, 84.3, 82.9, 94.8, 92.4% [2023-10] and 87, 102, 106, 110, 105% [2023-11] | 92.5, 102, 93, 112, 103, 90.8, 80.9, 90.9% [2023-10] and 84.5, 83.3, 87.1, 93.7, 99.4% [2023-11] | 97.9, 106, 98.9, 99.6, 91.6, 97.4, 84.3, 94.2% [2023-10] and 101, 91, 108, 115, 106% [2023-11] | 104, 97.1, 109 (2×), 118, 101, 107, 82.3% [2023-10] and 121, 135, 106, 93.2, 112% [2023-11]
COC1C(OC(N)=O)C(O)C(Oc2ccc3c(O)c(NC(=O)c4ccc(O)c(CC=C(C)C)c4)c(=O)oc3c2C)OC1(C)C (stereo not drawn) |  | 89.1, 98.4, 103, 86.1, 91.6, 92.3, 104, 115, 106, 93.1, 85.8, 95.8, 91% |  | 96.4, 110, 91.8, 81.9, 92.2, 91.4, 94.2, 112, 98.2, 97.5, 83.5, 96.5, 103% | 104 (2×), 95.4, 107, 103, 96.8, 96.5, 91.1, 110, 101, 82.3, 95.7, 89.8% | 102, 92.1, 106, 100, 94.7, 95.8, 94.1, 118, 115, 107, 88.8, 105, 98.3%
